{
  "source": "paper PMC6212790",
  "note": "Some of the results follow. At the low end of the ranking, values are background and their order means little.",
  "data": [
    {"biological_target": "T1, GST-Rok-C97-191 (UniProt O34857)", "T1 sequence": "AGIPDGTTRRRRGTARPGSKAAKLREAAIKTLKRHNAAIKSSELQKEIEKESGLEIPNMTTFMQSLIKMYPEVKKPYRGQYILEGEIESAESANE", "experiment": "protein binding microarray;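 also: rank score from −0.5 (least bound) to 0.5 (best bound)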", "details": "Rok is a gene silencer of Bacillus subtilis; high values mean tight binding; most listed sequences are background and not binding sites; double strand, one strand shown", "units": {"binding signal": "E-score"}, "values": [
      {"sequence": "GTTGTCAA", "binding signal": -0.0894},
      {"sequence": "ATGCTTAA", "binding signal": -0.0221},
      {"sequence": "ATGATATA", "binding signal": 0.386},
      {"sequence": "CCGTGTCG", "binding signal": -0.314},
      {"sequence": "CTTCTTGA", "binding signal": -0.0372},
      {"sequence": "GCTAGCCA", "binding signal": 0.153},
      {"sequence": "ATGTTGGA", "binding signal": -0.0892},
      {"sequence": "CTCTCAAC", "binding signal": 0.0668},
      {"sequence": "ACGTATGG", "binding signal": 0.00685},
      {"sequence": "ACGAAAAC", "binding signal": -0.0839},
      {"sequence": "GCACGAAA", "binding signal": 0.0521},
      {"sequence": "TCCCCGCA", "binding signal": -0.314},
      {"sequence": "TAAATCTA", "binding signal": 0.364},
      {"sequence": "TCCTCCGA", "binding signal": -0.249},
      {"sequence": "AAACCCCC", "binding signal": -0.222},
      {"sequence": "AGGAGTGG", "binding signal": -0.0863},
      {"sequence": "GGCTCTAC", "binding signal": -0.0584},
      {"sequence": "AAGTATGC", "binding signal": 0.161},
      {"sequence": "AGGCGCCA", "binding signal": -0.0561},
      {"sequence": "AATTAAAC", "binding signal": 0.0632},
      {"sequence": "TAAATTAA", "binding signal": 0.267},
      {"sequence": "ACCCCAGC", "binding signal": -0.0894},
      {"sequence": "ACGGTAGT", "binding signal": 0.408},
      {"sequence": "CTGCTACA", "binding signal": 0.16},
      {"sequence": "GACTGGAA", "binding signal": 0.0803},
      {"sequence": "GAAGCTCA", "binding signal": 0.0286},
      {"sequence": "GCCATTCC", "binding signal": -0.156},
      {"sequence": "GAAAGAAA", "binding signal": 0.0596},
      {"sequence": "GCCAAAGA", "binding signal": -0.207},
      {"sequence": "TGCTAGCA", "binding signal": 0.027},
      {"sequence": "CATACCTC", "binding signal": -0.0434},
      {"sequence": "AGCGGACG", "binding signal": 0.000189},
      {"sequence": "TAACAAGA", "binding signal": -0.0405},
      {"sequence": "CGGAATCA", "binding signal": -0.045},
      {"sequence": "TATTGTAA", "binding signal": 0.23},
      {"sequence": "CACAAAAA", "binding signal": 0.102},
      {"sequence": "AAAGTTTG", "binding signal": -0.0186},
      {"sequence": "ACCGTGCC", "binding signal": -0.132},
      {"sequence": "ACCGTGCG", "binding signal": -0.00449},
      {"sequence": "AACGGTCT", "binding signal": -0.0159},
      {"sequence": "CCTGGTGA", "binding signal": -0.248},
      {"sequence": "AGTTACAC", "binding signal": 0.178},
      {"sequence": "CAGACAAC", "binding signal": -0.0635},
      {"sequence": "AATGAGAC", "binding signal": -0.0863},
      {"sequence": "ACGGCCTA", "binding signal": -0.212},
      {"sequence": "GACTCAAC", "binding signal": -0.156},
      {"sequence": "CGGGTCAC", "binding signal": -0.145},
      {"sequence": "ACAGTAAC", "binding signal": 0.189},
      {"sequence": "CCCCTTCG", "binding signal": -0.38},
      {"sequence": "AGGGCGTG", "binding signal": -0.216},
      {"sequence": "CGCCTCAC", "binding signal": -0.178},
      {"sequence": "ACTATGTG", "binding signal": 0.0615},
      {"sequence": "ACACTCTC", "binding signal": -0.0287},
      {"sequence": "CAAGTAGG", "binding signal": 0.135},
      {"sequence": "CTCGCAGA", "binding signal": -0.119},
      {"sequence": "GAAACTGC", "binding signal": -0.0234},
      {"sequence": "GATCTGGC", "binding signal": -0.0869},
      {"sequence": "CAGTACTC", "binding signal": 0.00214},
      {"sequence": "AGCTCGAG", "binding signal": 0.0624},
      {"sequence": "TAGGTGAA", "binding signal": 0.0618},
      {"sequence": "ATGGGTTC", "binding signal": 0.00727},
      {"sequence": "ATACCGAC", "binding signal": -0.0441},
      {"sequence": "TCGAGCAA", "binding signal": -0.0104},
      {"sequence": "ACGATGGA", "binding signal": 0.117},
      {"sequence": "AGGAATGG", "binding signal": -0.0993},
      {"sequence": "CCTTGACA", "binding signal": -0.183},
      {"sequence": "GTACATAC", "binding signal": 0.172},
      {"sequence": "TGTGAACA", "binding signal": -0.075},
      {"sequence": "CACCCTTA", "binding signal": -0.145},
      {"sequence": "ATGGCCCC", "binding signal": -0.211},
      {"sequence": "ATCCAGGG", "binding signal": -0.16},
      {"sequence": "ATCAGAAG", "binding signal": 0.0449},
      {"sequence": "CCATCTCA", "binding signal": -0.184},
      {"sequence": "GCAGCTGC", "binding signal": -0.275},
      {"sequence": "CTGGAGAC", "binding signal": 0.00478},
      {"sequence": "GGCGAAGA", "binding signal": -0.0389},
      {"sequence": "GTATATTA", "binding signal": 0.371},
      {"sequence": "AATATTAG", "binding signal": 0.31},
      {"sequence": "ATACATCC", "binding signal": 0.108},
      {"sequence": "ATCACAAC", "binding signal": -0.0464},
      {"sequence": "AGTCACCA", "binding signal": -0.102},
      {"sequence": "AGTTTTGA", "binding signal": 0.138},
      {"sequence": "AACCAACT", "binding signal": 0.115},
      {"sequence": "GTGCTTGA", "binding signal": -0.0715},
      {"sequence": "CTCTTAAA", "binding signal": -0.0778},
      {"sequence": "GGGGGCCA", "binding signal": -0.346}
    ]}
  ]
}
